Results as given in the antibiotic and cytotoxicity screens of Wong et al. (2023).
This is one part of the list.

Legend:
HSkMC = human skeletal muscle cells; test: cytotoxicity call (relative viability < 0.9); details: 10 µM
HepG2 = test: cytotoxicity call (relative viability < 0.9); details: 10 µM
S. aureus RN4220 = test: growth inhibition call (relative growth <= 0.2); details: 50 µM

Row | SMILES | cytotoxicity call (HSkMC) | cytotoxicity call (HepG2) | growth inhibition call (S. aureus RN4220)
1 | COc1ccc(CN(C)C[C@@H]2Oc3c(NS(C)(=O)=O)cccc3C(=O)N([C@H](C)CO)C[C@@H]2C)cc1 | inactive | inactive | inactive
2 | C[C@@H]1CCCCO[C@@H](CN(C)CC2CCCCC2)[C@@H](C)CN([C@@H](C)CO)C(=O)c2cc(NS(=O)(=O)c3ccc(Cl)cc3)ccc2O1 | inactive | active | inactive
3 | O/N=C1\CCCCc2c1[nH]c1ccc(C3CCCCC3)cc21 | inactive | inactive | inactive
4 | O=C(C[C@@H]1C[C@H]2c3cc(NC(=O)c4ccc5c(c4)OCO5)ccc3O[C@H]2[C@@H](CO)O1)NCc1cccnc1 | inactive | inactive | inactive
5 | C[C@@H]1CCCCO[C@H](CN(C)CC2CC2)[C@H](C)CN([C@H](C)CO)C(=O)c2cc(NC(=O)c3ccccc3)ccc2O1 | inactive | inactive | inactive
6 | C[C@@H]1CCCCO[C@@H](CN(C)CC2CCCCC2)[C@H](C)CN([C@H](C)CO)C(=O)c2cc(NC(=O)Nc3cccc4ccccc34)ccc2O1 | active | active | inactive
7 | CC(C)C#Cc1cnc2c(c1)C(=O)N([C@@H](C)CO)C[C@@H](C)[C@H](CN(C)S(=O)(=O)c1cn(C)cn1)O2 | inactive | inactive | inactive
8 | CO[C@@]1(NC(=O)CSC[C@@H](N)C(=O)O)C(=O)N2C(C(=O)O)=C(CSc3nnnn3C)CS[C@@H]21 | inactive | inactive | inactive
9 | COc1ccc(S(=O)(=O)N(C)C[C@@H]2Oc3ccc(NC(=O)Cc4ccccc4)cc3C(=O)N([C@@H](C)CO)C[C@H]2C)cc1 | inactive | inactive | inactive
10 | CN1CCN(C(=O)C[C@@H]2C=C[C@H](NC(=O)c3ccc4c(c3)OCO4)[C@H](CO)O2)CC1 | inactive | inactive | inactive
11 | CCCCCC(C)N.O=S(=O)(O)O (stereo not drawn) | inactive | inactive | inactive
12 | CCCCC/C=C\C/C=C\CCCCCCCC(N)=O | inactive | inactive | inactive
13 | CN1CCCN=C1C=Cc1cccs1.O=C(O)c1cc2ccccc2c(Cc2c(O)c(C(=O)O)cc3ccccc23)c1O | inactive | inactive | inactive
14 | C[C@@H]1CCCCO[C@H](CN(C)CC2CCCCC2)[C@H](C)CN([C@H](C)CO)C(=O)c2cc(NC(=O)CCCN(C)C)ccc2O1 | inactive | inactive | inactive
15 | C[C@H](CO)N1C[C@H](C)[C@@H](CN(C)C(=O)c2ccncc2)Oc2cc(C#Cc3ccncc3)ccc2S1(=O)=O | inactive | active | inactive
16 | COc1ccc(NC(=O)N(C)C[C@H]2OCCCC[C@@H](C)Oc3ccc(NS(=O)(=O)c4cccs4)cc3C(=O)N([C@@H](C)CO)C[C@H]2C)cc1 | inactive | inactive | inactive
17 | CN(Cc1cnc2nc(N)nc(N)c2n1)c1ccc(C(=O)N[C@@H](CCC(=O)O)C(=O)O)cc1 | inactive | active | inactive
18 | CCNC(=O)[C@H]1[C@H](CO)[C@H]2Cn3c(ccc(-c4cccc(C(=O)N(C)C)c4)c3=O)[C@@H]1N2 | inactive | inactive | inactive
19 | CC(C)NC(=O)N[C@H]1CC[C@H](CCN)O[C@H]1CO | inactive | inactive | inactive
20 | C[C@H]1CN([C@@H](C)CO)C(=O)c2cc(NC(=O)Cn3cnnn3)ccc2O[C@H]1CN(C)S(=O)(=O)c1ccc(F)cc1 | inactive | inactive | inactive
21 | C[C@H](CO)N1C[C@H](C)[C@H](CN(C)S(=O)(=O)c2ccc(F)cc2)Oc2ccc(NS(=O)(=O)c3ccccc3)cc2CC1=O | inactive | inactive | inactive
22 | COc1ccc(-c2ccc3cc(C(=O)O)ccc3c2)cc1C12CC3CC(CC(C3)C1)C2 | inactive | inactive | inactive
23 | C=C(C(=O)O[C@H]1CC=C(C)C[C@H](O)[C@H]2[C@H](C)C(=O)O[C@@H]2/C=C/1C)[C@@H]1CCC(=C)[C@@H]2C[C@H](O[C@@H]3O[C@H](COC(=O)CC(=O)O)[C@@H](O)[C@H](O)[C@H]3O)C(=C)[C@@H]2C1 | inactive | inactive | inactive
24 | CCNC(=O)C[C@@H]1CC[C@@H]2[C@H](COc3ccc(NS(=O)(=O)c4ccccc4C)cc3C(=O)N2C)O1 | inactive | inactive | inactive
25 | Cc1noc(C)c1NC(=O)Nc1ccc2c(c1)CC(=O)N([C@H](C)CO)C[C@@H](C)[C@H](CN(C)S(=O)(=O)c1c(C)noc1C)O2 | inactive | inactive | inactive
26 | COCC(=O)N(C)C[C@H]1Oc2cc(-c3ccc(C#N)cc3)ccc2S(=O)(=O)N([C@@H](C)CO)C[C@H]1C | inactive | inactive | inactive
